Hit rate of the full screen: of about 39,000 compounds, about 220 (0.56%) showed activity. The list shows a part of the results.
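Note: static incubation at 37 °C against the wild-type strain, values averaged over two biological replicates.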

The assay deals with Escherichia coli K-12 BW25113. The assay is described as follows: relative growth (OD600 normalised to plate interquartile mean) (fraction); higher = less growth inhibition, active = 0.2 or less. The following applies: 50 µM; LB; incubation time: overnight (16-24 h).
For the compound `COc1cccc([C@@H](NC(=O)C2CCN(Cc3ccc(Oc4ccccc4)cc3)CC2)c2ccccn2)c1`, the relative growth was inactive: 1.01.
Regarding `CC(=O)Nc1nnc(-c2ccno2)o1`, the relative growth was inactive: 1.01.
With `CN(C)S(=O)(=O)N1CCC[C@H](C(N)=O)C1`, the relative growth is inactive: 0.99.
On to `C[C@@H]1CCCCO[C@@H](CN(C)Cc2ccncc2)[C@@H](C)CN([C@@H](C)CO)C(=O)c2cc(NS(C)(=O)=O)ccc2O1`, for which the relative growth was inactive: 1.03.
For `CNC[C@H]1Oc2ccc(NS(=O)(=O)c3cn(C)cn3)cc2C(=O)N([C@@H](C)CO)C[C@@H]1C`, the relative growth is inactive: 0.982.
The figure for `Cn1cnc(CO)n1` is inactive: 0.991; for `Cc1noc(C)c1NC(=O)N(C)C[C@H]1Oc2ccc(NC(=O)Nc3cccc4ccccc34)cc2C(=O)N([C@@H](C)CO)C[C@@H]1C` it is inactive: 0.983.
Regarding `CC(C)NC(=O)N(C)C[C@H]1Oc2c(NC(=O)C3CCOCC3)cccc2C(=O)N([C@@H](C)CO)C[C@H]1C`, the relative growth is inactive: 1.
For the compound `COc1ccc(S(=O)(=O)N(C)C[C@H]2Oc3ccc(NS(=O)(=O)c4c(C)noc4C)cc3C(=O)N([C@H](C)CO)C[C@H]2C)cc1`, the relative growth is inactive: 1.01.
In the case of `CC(C)NC(=O)Nc1ccc2c(c1)CC(=O)N([C@H](C)CO)C[C@H](C)[C@@H](CN(C)S(=O)(=O)c1cn(C)cn1)O2`, the relative growth was inactive: 0.998.
Next, `COc1ccc2c3c([nH]c2c1)[C@@H](CO)N(CC1CCCCC1)C[C@]13CCN(CC1)C(=O)NC1CCCC1`: inactive: 0.983; `Cc1ccc(-c2ccc3c(c2)O[C@H](CN(C)C(=O)NC(C)C)[C@@H](C)CN([C@H](C)CO)S3(=O)=O)cc1`: inactive: 1.05.
Next, `Cc1ccc(S(=O)(=O)Nc2ccc3c(c2)C(=O)N([C@@H](C)CO)C[C@@H](C)[C@H](CN(C)C(=O)Nc2cccc4ccccc24)OCCCC[C@H](C)O3)cc1`: inactive: 1.02; `COCC(=O)N(C)C[C@H]1Oc2cc(-c3ccc(OC)cc3)ccc2S(=O)(=O)N([C@@H](C)CO)C[C@H]1C`: inactive: 1.
The figure for `Cc1ccc(S(=O)(=O)N(C)C[C@H]2Oc3c(NC(=O)Nc4cccc5ccccc45)cccc3C(=O)N([C@H](C)CO)C[C@H]2C)cc1` is inactive: 1.
Regarding `COc1ccc(NC(=O)N(C)C[C@H]2Oc3c(NC(=O)c4cc(C)nn4C)cccc3C(=O)N([C@@H](C)CO)C[C@@H]2C)cc1`, the relative growth was inactive: 1.01.
The figure for `Cc1noc(C)c1S(=O)(=O)Nc1ccc2c(c1)C(=O)N([C@@H](C)CO)C[C@@H](C)[C@H](CN(C)C)OCCCC[C@H](C)O2` is inactive: 1.
The figure for `NNC(=O)c1cccc(C(=O)NO)c1` is inactive: 0.972; for `C[C@H]1CN([C@@H](C)CO)C(=O)c2cc(NC(=O)Nc3cccc4ccccc34)ccc2O[C@@H]1CN(C)Cc1ccc2c(c1)OCO2` it is inactive: 0.997; for `CCc1ccc(OC[C@@H](O)CN)cc1` it is inactive: 1.
The figure for `CC(C)(/N=N/C(C)(C)C(=N)N)C(=N)N` is inactive: 0.99.
Consider `O=C(C[C@H]1CC[C@@H](NS(=O)(=O)c2ccc(F)cc2)[C@H](CO)O1)NCc1ccc(Cl)c(Cl)c1`, for which the relative growth was inactive: 1.
Next, `C[C@@H]1CN([C@@H](C)CO)C(=O)Cc2cc(NC(=O)Nc3cccc4ccccc34)ccc2O[C@@H]1CN(C)S(=O)(=O)c1ccc(Cl)cc1`: inactive: 1.05.
Regarding `O=C(/C=C/c1ccc(O)c(O)c1)O[C@@H]1C[C@](OC(=O)/C=C/c2ccc(O)c(O)c2)(C(=O)O)C[C@@H](OC(=O)/C=C/c2ccc(O)c(O)c2)[C@H]1O`, the relative growth was inactive: 0.961.
Next, `C[C@H]1CN([C@@H](C)CO)S(=O)(=O)c2ccc(C#Cc3cccnc3)cc2O[C@H]1CN(C)C(=O)Nc1ccc2c(c1)OCO2`: inactive: 0.972; `CN(C)CCCNC(=O)C[C@H]1CC[C@H]2[C@@H](COc3ccc(NC(=O)c4ccccc4F)cc3C(=O)N2C)O1`: inactive: 1.01.
The figure for `COC(=O)c1ccc(O)c(O)c1` is inactive: 0.976.
Take `Cc1noc(C)c1S(=O)(=O)N(C)C[C@H]1Oc2ccc(NC(=O)Nc3ccc4c(c3)OCO4)cc2C(=O)N([C@H](C)CO)C[C@@H]1C`: the relative growth is inactive: 1.02.
Regarding `COc1ccc(S(=O)(=O)Nc2ccc3c(c2)CC(=O)N([C@H](C)CO)C[C@@H](C)[C@H](CN(C)S(=O)(=O)c2ccc(C)cc2)O3)cc1`, the relative growth is inactive: 1.05.
Next, `Cc1noc(C)c1S(=O)(=O)N(C)C[C@@H]1Oc2ccc(NC(=O)C3CCCCC3)cc2CC(=O)N([C@H](C)CO)C[C@H]1C`: inactive: 1.02; `CC(C)c1c(O)ccc2c1CCC1C(C)(C)C(=O)CCC21C` (stereo unspecified): inactive: 0.993.
In the case of `CNC[C@@H](O)[C@@H](O)[C@@H](O)[C@@H](O)CO`, the relative growth is inactive: 0.986.
As to `C[C@@H]1CCCCO[C@H](CN(C)CC2CCCCC2)[C@@H](C)CN([C@H](C)CO)C(=O)c2cc(NC(=O)c3ccccc3)ccc2O1`, the relative growth was inactive: 0.888.
Next, `C[C@H](CO)N1C[C@H](C)[C@H](CN(C)C(=O)Nc2ccccc2)Oc2ccc(NS(=O)(=O)c3cn(C)cn3)cc2CC1=O`: inactive: 1.01; `C[C@@H]1CN([C@H](C)CO)S(=O)(=O)c2ccc(C#CC3CC3)cc2O[C@H]1CN(C)C(=O)C1CCCCC1`: inactive: 0.998.
Regarding `CC(C)NC(=O)N(C)C[C@H]1Oc2cc(-c3ccccc3F)ccc2S(=O)(=O)N([C@@H](C)CO)C[C@H]1C`, the relative growth was inactive: 0.966.
Next, `Cc1ccc(S(=O)(=O)Nc2ccc3c(c2)CC(=O)N([C@@H](C)CO)C[C@H](C)[C@H](CN(C)S(=O)(=O)c2c(C)noc2C)O3)cc1`: inactive: 0.984; `C[C@@H]1CCCCO[C@@H](CN(C)CC2CCCCC2)[C@@H](C)CN([C@@H](C)CO)C(=O)c2cc(NS(=O)(=O)c3ccc(F)cc3)ccc2O1`: inactive: 1; `C[C@@H]1CCCCO[C@H](CN(C)C(=O)Nc2cccc3ccccc23)[C@H](C)CN([C@@H](C)CO)C(=O)c2cc(NC(=O)c3ccccc3)ccc2O1`: inactive: 0.995.
Next, `C[C@H]1CN([C@@H](C)CO)S(=O)(=O)c2ccc(Br)cc2O[C@@H]1CN(C)C(=O)c1cnccn1`: inactive: 1; `O=C(CN1CCOCC1)N[C@H]1CC[C@H](CCNS(=O)(=O)c2ccccc2F)O[C@@H]1CO`: inactive: 0.939.

(Values after the supplement of paper PMC9446081.)
